This is one part of the list. At the low end of the ranking the order means little.
These sequences were tested against SIX1-Q177R homeodomain (UniProt Q15475) (assay: universal protein binding microarray). Settings: Universal all-10-mer PBM (8x60K, AMADID 030236), 300 nM GST-tagged protein, Alexa Fluor 488 anti-GST; buffer, salt, pH and temperature not stated; high values mean tight binding; most listed sequences are background and not binding sites; double strand, one strand shown.
For GGGCAAAA, the binding signal was -0.107 E-score.
Work on AAACCGCA yielded a binding signal of -0.14 E-score.
In the case of CCGGTATC, the binding signal is reported as 0.284 E-score.
CGTCGCAA showed a binding signal of -0.262 E-score.
ATCCAATG gave a binding signal of -0.025 E-score.
CCGCTTGA was tested, and the binding signal was 0.0689 E-score.
With AAGACTAA the binding signal was 0.0261 E-score.
For ACTCTCGC, the binding signal was -0.0845 E-score.
TATTCTGA gave a binding signal of -0.0987 E-score.
With GAGCCATC the binding signal was -0.128 E-score.
With CTAGCTGA the binding signal was -0.15 E-score.
Work on CGCAGCTC yielded a binding signal of -0.0248 E-score.
With TACCGGAA the binding signal was -0.0409 E-score.
With TGGATCAA the binding signal was 0.147 E-score.
GAGACACA was tested, and the binding signal was 0.241 E-score.
AGTCGTGC was tested, and the binding signal was -0.042 E-score.
With AAGTAATC the binding signal was 0.163 E-score.
GATATGCA was tested, and the binding signal was -0.0875 E-score.
Sequence CTGGCGCA has a binding signal of 0.0234 E-score.
Sequence GCTCTTAC has a binding signal of 0.0757 E-score.
With CGGGGTGA the binding signal was 0.166 E-score.
Work on AGCGTCAA yielded a binding signal of 0.0409 E-score.
For CTCGGTGA, the binding signal was -0.174 E-score.
GCGGCGTA was tested, and the binding signal was 0.0464 E-score.
With TATCATGA the binding signal was -0.0594 E-score.
With AGGTCTTA the binding signal was -0.0436 E-score.
With ATCTCGCC the binding signal was -0.335 E-score.
TAATATAA showed a binding signal of 0.0896 E-score.
Work on AAATAGGG yielded a binding signal of -0.0248 E-score.
GGAAGTAC gave a binding signal of -0.107 E-score.
AAATACGT showed a binding signal of -0.241 E-score.
ACTATTCA gave a binding signal of 0.000625 E-score.
In the case of AGCCAAAT, the binding signal is reported as -0.265 E-score.
Work on CCGTGCTA yielded a binding signal of 0.111 E-score.
Work on ACGCCAGT yielded a binding signal of 0.123 E-score.
CCCTCGGA was tested, and the binding signal was 0.19 E-score.
In the case of GGGGCAGA, the binding signal is reported as 0.0913 E-score.
For CAGTCGAC, the binding signal was -0.115 E-score.
For CAAGAGCG, the binding signal was -0.191 E-score.
In the case of CTTCACAA, the binding signal is reported as -0.117 E-score.
Sequence AACTGTGA has a binding signal of -0.0487 E-score.
CCACCGAG gave a binding signal of 0.0196 E-score.
GAATTATA gave a binding signal of -0.0433 E-score.
With ATAAAGAA the binding signal was -0.0439 E-score.
ACGGGAAC gave a binding signal of -0.0544 E-score.
AACCTAGG was tested, and the binding signal was -0.0907 E-score.
With GAAGGTCC the binding signal was -0.245 E-score.
GGACACAA gave a binding signal of 0.18 E-score.
AGTCCTCA showed a binding signal of -0.314 E-score.
TCCGCGCA showed a binding signal of 0.0518 E-score.
ACCGAACC was tested, and the binding signal was 0.197 E-score.
With AGAAATTG the binding signal was -0.173 E-score.
With CCGCATTA the binding signal was 0.0732 E-score.
Sequence AGCCGACG has a binding signal of 0.0469 E-score.
Work on CGTAGACA yielded a binding signal of 0.0345 E-score.
CTAGGGCC gave a binding signal of -0.25 E-score.
With CACACGCC the binding signal was 0.252 E-score.
ATTATTAC gave a binding signal of 0.0442 E-score.
AGCTCTGA gave a binding signal of -0.0246 E-score.
Work on TAATATGA yielded a binding signal of -0.133 E-score.
With TATTGGCA the binding signal was 0.0118 E-score.
Work on CTAGTCAG yielded a binding signal of -0.189 E-score.
AGACTTGG was tested, and the binding signal was -0.142 E-score.
AGCACGTA showed a binding signal of 0.109 E-score.
GGGACTTA showed a binding signal of -0.15 E-score.
For ACACCGCC, the binding signal was 0.474 E-score.
In the case of GCAGGATA, the binding signal is reported as 0.121 E-score.
In the case of CCAAGGAA, the binding signal is reported as -0.115 E-score.
GTATCGTA showed a binding signal of 0.18 E-score.
Sequence ACCCGATA has a binding signal of 0.237 E-score.
Sequence CAGGTATG has a binding signal of -0.0649 E-score.
CCACATTA was tested, and the binding signal was -0.0817 E-score.
Work on AATTTGAG yielded a binding signal of -0.112 E-score.
Sequence GGACATCA has a binding signal of -0.259 E-score.
Work on CGTCCTGC yielded a binding signal of 0.00934 E-score.
For GCCGATAA, the binding signal was -0.0435 E-score.
GCAGCCCC gave a binding signal of -0.101 E-score.
AACAGCTC was tested, and the binding signal was -0.222 E-score.
AATGACCA gave a binding signal of -0.297 E-score.
ACATTCGC was tested, and the binding signal was -0.155 E-score.
Sequence AGGTCGAC has a binding signal of 0.014 E-score.
With ATCCGGGC the binding signal was 0.0339 E-score.
For CGCGGTAA, the binding signal was -0.02 E-score.
Work on CGCCACAA yielded a binding signal of 0.142 E-score.
Work on CATGTGCC yielded a binding signal of -0.0789 E-score.
In the case of ACAGCTTA, the binding signal is reported as -0.163 E-score.
In the case of GCCTAGCC, the binding signal is reported as -0.192 E-score.
In the case of GCTTGAAC, the binding signal is reported as 0.000595 E-score.
AGGTGGTC showed a binding signal of -0.0851 E-score.
In the case of AATTCGGG, the binding signal is reported as -0.0131 E-score.
Work on CCCCGACC yielded a binding signal of 0.157 E-score.
With GATTCTCC the binding signal was -0.103 E-score.
Work on ATCCCAGG yielded a binding signal of 0.123 E-score.
With CACCGGTG the binding signal was 0.418 E-score.
GAGGGATA showed a binding signal of 0.145 E-score.
Sequence CGTGTTAG has a binding signal of 0.38 E-score.
ATTAGCCC showed a binding signal of -0.174 E-score.
For GTCAAAAC, the binding signal was -0.00246 E-score.
For ACTCTAAA, the binding signal was -0.089 E-score.
ACCGGTTC gave a binding signal of -0.064 E-score.
CGGAATAG showed a binding signal of -0.114 E-score.
Sequence TGCAAAAA has a binding signal of -0.114 E-score.
CTGCCACC showed a binding signal of 0.0483 E-score.
With CCCTAACC the binding signal was 0.04 E-score.
For CAGATATG, the binding signal was -0.0084 E-score.
Work on AGCGAGCC yielded a binding signal of -0.162 E-score.
Sequence GGACTGGA has a binding signal of -0.078 E-score.
Sequence ACCGGTTG has a binding signal of 0.145 E-score.
TGCAACCA showed a binding signal of -0.0754 E-score.
Work on ACGGACAG yielded a binding signal of -0.0252 E-score.
With GACGGGCA the binding signal was -0.108 E-score.
CCACTCCA was tested, and the binding signal was 0.152 E-score.
For ATTAGCTC, the binding signal was -0.109 E-score.
CCTGGGCG gave a binding signal of 0.0197 E-score.
Sequence CGGTGCCC has a binding signal of 0.029 E-score.
Work on CGAGACAC yielded a binding signal of 0.389 E-score.
Work on GTATTAGA yielded a binding signal of 0.0952 E-score.
With ACTCTTAT the binding signal was 0.212 E-score.
For ACTAAAGC, the binding signal was -0.061 E-score.
GGCCCTAC was tested, and the binding signal was -0.139 E-score.
Work on ATCTGGCG yielded a binding signal of -0.0179 E-score.
CGGGCGAG showed a binding signal of 0.00069 E-score.
Sequence CGCAAGAA has a binding signal of -0.086 E-score.
CCGCATGC showed a binding signal of -0.00511 E-score.
CTAATCCC gave a binding signal of -0.0095 E-score.
With GAAAGACC the binding signal was -0.22 E-score.
CCCGAACA showed a binding signal of 0.17 E-score.
CCAATCTC gave a binding signal of -0.175 E-score.
Sequence ATGTCTTC has a binding signal of -0.0422 E-score.
For CTCTGAGC, the binding signal was -0.0902 E-score.
ACAGTCGG was tested, and the binding signal was 0.136 E-score.
GAGACGCC showed a binding signal of 0.0436 E-score.
AAGGAATA was tested, and the binding signal was -0.237 E-score.
ATATCAAT gave a binding signal of -0.0784 E-score.
AAGCTAAA gave a binding signal of -0.351 E-score.
For CACCAGCG, the binding signal was 0.22 E-score.
For ACTATGAC, the binding signal was 0.0171 E-score.
For ATTAGTTC, the binding signal was -0.0385 E-score.
TCGGGTAA gave a binding signal of 0.194 E-score.
Sequence AGAGGCAA has a binding signal of -0.183 E-score.
Sequence CAACGGAG has a binding signal of 0.0118 E-score.
For AGAGAGCC, the binding signal was -0.259 E-score.
GCTCCCTA showed a binding signal of -0.118 E-score.
Sequence ATGAATTG has a binding signal of -0.0513 E-score.
TGATATAA was tested, and the binding signal was -0.155 E-score.
Sequence GCAGTAGC has a binding signal of 0.0276 E-score.
GGTCCGTA was tested, and the binding signal was 0.189 E-score.
With ATGGTGAG the binding signal was 0.0305 E-score.
With AAAGCTGC the binding signal was -0.102 E-score.
GTTTCTAA gave a binding signal of 0.0393 E-score.
ATACCCTA showed a binding signal of 0.312 E-score.
For CGTTTGGC, the binding signal was -0.187 E-score.
Work on GAGACCTC yielded a binding signal of -0.0967 E-score.
Sequence CTGCCATA has a binding signal of -0.109 E-score.
In the case of ACGCCATG, the binding signal is reported as 0.0868 E-score.
With CGAAAGAG the binding signal was -0.304 E-score.
ACTTACGA was tested, and the binding signal was 0.0949 E-score.
GAGTCTAA showed a binding signal of -0.0765 E-score.
In the case of CGGATTCA, the binding signal is reported as 0.0346 E-score.
GACGGTCA gave a binding signal of -0.257 E-score.
GGCCGTTA gave a binding signal of -0.0511 E-score.
AATCTCCG showed a binding signal of -0.145 E-score.
Work on GGTGTATA yielded a binding signal of 0.458 E-score.
Sequence ATGATCCG has a binding signal of 0.0063 E-score.
AAAAATAA showed a binding signal of -0.211 E-score.
CAAGCGCC gave a binding signal of -0.15 E-score.
In the case of CTTGGGAC, the binding signal is reported as -0.0509 E-score.
With ACAAGTCC the binding signal was -0.163 E-score.
Work on AACGTTCA yielded a binding signal of -0.227 E-score.
In the case of AATGAGAT, the binding signal is reported as -0.052 E-score.
CTCACCTA gave a binding signal of -0.0894 E-score.
CCGAATCG gave a binding signal of -0.0316 E-score.
